Laboratory results published in the supplement of paper PMC8728848.
This is one part of the list.

Assays:
Test in all cases: glycan array binding signal (z-score within array); higher = stronger binding
Details in all cases: glycan notation: IUPAC condensed, linker removed
[1] = target: Neu5Ac(a2-3)Gal(b1-3)GlcNAc(b1-2)Man(a1-3)[Neu5Ac(a2-3)Gal(b1-3)GlcNAc(b1-2)Man(a1-6)]Man(b1-4)GlcNAc(b1-4)GlcNAc
Summary of the method: (§1)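 Glycan array data came from 3228 arrays in the Consortium for Functional Glycomics database, and only arrays with an available protein sequence were kept. Glycan names were put into IUPAC-condensed notation, and columns mapping to the same glycan were averaged. The binding signal is a within-array Z-score, averaged across arrays of one protein sequence run at different concentrations or buffers and across linkers. A negative Z-score can be read as non-binding.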

[2] = target: Neu5Ac(a2-3)Gal(b1-3)GlcNAc(b1-3)Gal(b1-3)GlcNAc
Summary of the method: as §1

[3] = target: Neu5Ac(a2-3)Gal(b1-3)GlcNAc(b1-3)Gal(b1-4)GlcNAc
Summary of the method: as §1

[4] = target: Neu5Ac(a2-3)Gal(b1-3)GlcNAc(b1-3)GalNAc
Summary of the method: as §1

[5] = target: Neu5Ac(a2-3)Gal(b1-3)GlcNAc(b1-4)Gal(b1-4)Glc
Summary of the method: as §1

[6] = target: Neu5Ac(a2-3)Gal(b1-3)GlcNAc(b1-6)GalNAc
Summary of the method: as §1

[7] = target: Neu5Ac(a2-3)Gal(b1-3)GlcNAc6S
Summary of the method: as §1

[8] = target: Neu5Ac(a2-3)Gal(b1-3)[Fuc(a1-4)]GlcNAc
Summary of the method: as §1

[9] = target: Neu5Ac(a2-3)Gal(b1-3)[Fuc(a1-4)]GlcNAc(b1-3)Gal(b1-3)[Fuc(a1-4)]GlcNAc
Summary of the method: as §1

[10] = target: Neu5Ac(a2-3)Gal(b1-3)[Fuc(a1-4)]GlcNAc(b1-3)Gal(b1-4)[Fuc(a1-3)]GlcNAc
Summary of the method: as §1

[11] = target: Neu5Ac(a2-3)Gal(b1-3)[GlcNAc(b1-6)]GalNAc
Summary of the method: as §1

[12] = target: Neu5Ac(a2-3)Gal(b1-3)[Neu5Ac(a2-3)Gal(b1-4)]GlcNAc
Summary of the method: as §1

[13] = target: Neu5Ac(a2-3)Gal(b1-3)[Neu5Ac(a2-6)]GalNAc
Summary of the method: as §1

[14] = target: Neu5Ac(a2-3)Gal(b1-3)[Neu5Ac(a2-6)]GlcNAc(b1-3)[Fuc(a1-3)[Gal(b1-4)]GlcNAc(b1-6)]Gal(b1-4)Glc
Summary of the method: as §1

[15] = target: Neu5Ac(a2-3)Gal(b1-3)]Neu5Ac(a2-3)Gal(b1-4)]GlcNAc
Summary of the method: as §1

[16] = target: Neu5Ac(a2-3)Gal(b1-4)Glc
Summary of the method: as §1

[17] = target: Neu5Ac(a2-3)Gal(b1-4)GlcNAc
Summary of the method: as §1

[18] = target: Neu5Ac(a2-3)Gal(b1-4)GlcNAc(b1-2)Man
Summary of the method: as §1

[19] = target: Neu5Ac(a2-3)Gal(b1-4)GlcNAc(b1-2)Man(a1-3)[GlcNAc(b1-2)Man(b1-4)GlcNAc(b1-2)Man(a1-6)]Man(b1-4)GlcNAc(b1-4)GlcNAc
Summary of the method: as §1

[20] = target: Neu5Ac(a2-3)Gal(b1-4)GlcNAc(b1-2)Man(a1-3)[GlcNAc(b1-4)][Neu5Ac(a2-3)Gal(b1-4)GlcNAc(b1-2)Man(a1-6)]Man(b1-4)GlcNAc(b1-4)GlcNAc
Summary of the method: as §1

[21] = target: Neu5Ac(a2-3)Gal(b1-4)GlcNAc(b1-2)Man(a1-3)[Neu5Ac(a2-3)Gal(b1-4)GlcNAc(b1-2)Man(a1-6)]Man(b1-4)GlcNAc(b1-4)GlcNAc
Summary of the method: as §1

[22] = target: Neu5Ac(a2-3)Gal(b1-4)GlcNAc(b1-2)Man(a1-3)[Neu5Ac(a2-3)Gal(b1-4)GlcNAc(b1-2)Man(a1-6)]Man(b1-4)GlcNAc(b1-4)[Fuc(a1-6)]GlcNAc
Summary of the method: as §1

[23] = target: Neu5Ac(a2-3)Gal(b1-4)GlcNAc(b1-2)Man(a1-3)[Neu5Ac(a2-6)Gal(b1-4)GlcNAc(b1-2)Man(a1-6)]Man(b1-4)GlcNAc(b1-4)GlcNAc
Summary of the method: as §1

[24] = target: Neu5Ac(a2-3)Gal(b1-4)GlcNAc(b1-2)[Neu5Ac(a2-3)Gal(b1-4)GlcNAc(b1-4)]Man(a1-3)[GlcNAc(b1-4)][Neu5Ac(a2-3)Gal(b1-4)GlcNAc(b1-2)[Neu5Ac(a2-3)Gal(b1-4)GlcNAc(b1-6)]Man(a1-6)]Man(b1-4)GlcNAc(b1-4)GlcNAc
Summary of the method: as §1

[25] = target: Neu5Ac(a2-3)Gal(b1-4)GlcNAc(b1-2)[Neu5Ac(a2-3)Gal(b1-4)GlcNAc(b1-4)]Man(a1-3)[GlcNAc(b1-4)][Neu5Ac(a2-3)Gal(b1-4)GlcNAc(b1-4)Man(a1-6)]Man(b1-4)GlcNAc(b1-4)GlcNAc
Summary of the method: as §1

[26] = target: Neu5Ac(a2-3)Gal(b1-4)GlcNAc(b1-2)[Neu5Ac(a2-3)Gal(b1-4)GlcNAc(b1-6)]Man(a1-6)[Neu5Ac(a2-3)Gal(b1-4)GlcNAc(b1-2)Man(a1-3)]Man(b1-4)GlcNAc(b1-4)GlcNAc
Summary of the method: as §1

[27] = target: Neu5Ac(a2-3)Gal(b1-4)GlcNAc(b1-2)[Neu5Ac(a2-3)Gal(b1-4)GlcNAc(b1-6)]Man(a1-6)[Neu5Ac(a2-3)Gal(b1-4)GlcNAc(b1-2)Man(a1-3)][GlcNAc(b1-4)]Man(b1-4)GlcNAc(b1-4)GlcNAc
Summary of the method: as §1

[28] = target: Neu5Ac(a2-3)Gal(b1-4)GlcNAc(b1-3)Gal
Summary of the method: as §1

[29] = target: Neu5Ac(a2-3)Gal(b1-4)GlcNAc(b1-3)Gal(b1-3)GlcNAc
Summary of the method: as §1

[30] = target: Neu5Ac(a2-3)Gal(b1-4)GlcNAc(b1-3)Gal(b1-4)GlcNAc
Summary of the method: as §1

[31] = target: Neu5Ac(a2-3)Gal(b1-4)GlcNAc(b1-3)Gal(b1-4)GlcNAc(b1-2)Man(a1-3)[Neu5Ac(a2-3)Gal(b1-4)GlcNAc(b1-3)Gal(b1-4)GlcNAc(b1-2)Man(a1-6)]Man(b1-4)GlcNAc(b1-4)GlcNAc
Summary of the method: as §1

[32] = target: Neu5Ac(a2-3)Gal(b1-4)GlcNAc(b1-3)Gal(b1-4)GlcNAc(b1-3)Gal(b1-4)GlcNAc
Summary of the method: as §1

[33] = target: Neu5Ac(a2-3)Gal(b1-4)GlcNAc(b1-3)Gal(b1-4)GlcNAc(b1-3)Gal(b1-4)GlcNAc(b1-2)Man(a1-3)[Neu5Ac(a2-3)Gal(b1-4)GlcNAc(b1-3)Gal(b1-4)GlcNAc(b1-3)Gal(b1-4)GlcNAc(b1-2)Man(a1-6)]GalNAc
Summary of the method: as §1

[34] = target: Neu5Ac(a2-3)Gal(b1-4)GlcNAc(b1-3)Gal(b1-4)GlcNAc(b1-3)GalNAc
Summary of the method: as §1

[35] = target: Neu5Ac(a2-3)Gal(b1-4)GlcNAc(b1-3)Gal(b1-4)GlcNAc(b1-3)[Neu5Ac(a2-3)Gal(b1-4)GlcNAc(b1-3)Gal(b1-4)GlcNAc(b1-6)]GalNAc
Summary of the method: as §1

[36] = target: Neu5Ac(a2-3)Gal(b1-4)GlcNAc(b1-3)Gal(b1-4)GlcNAc(b1-6)[Gal(b1-3)]GalNAc
Summary of the method: as §1

[37] = target: Neu5Ac(a2-3)Gal(b1-4)GlcNAc(b1-3)Gal(b1-4)[Fuc(a1-3)]GlcNAc
Summary of the method: as §1

[38] = target: Neu5Ac(a2-3)Gal(b1-4)GlcNAc(b1-3)GalNAc
Summary of the method: as §1

B1: Gal 4 (Mus musculus), P56470 (protein)
chain: MAYVPAPGYQPTYNPTLPYYQPIPGGLNVGMSVYIQGVASEHMKRFFVNFVVGQDPGSDVAFHFNPRFDGWDKVVFNTLQGGKWGSEERKRSMPFKKGAAFELVFIVLAEHYKVVVNGNPFYEYGHRLPLQMVTHLQVDGDLQLQSINFIGGQPLRPQGPPMMPPYPGPGHCHQQLNSLPTMEGPPTFNPPVPYFGRLQGGLTARRTIIIKGYVPPTGKSFAINFKVGSSGDIALHINPRMGNGTVVRNSLLNGSWGSEEKKITHNPFGPGQFFDLSIRCGLDRFKVYANGQHLFDFAHRLSAFQRVDTLEIQGDVTLSYVQI
In the case of B1, the “glycan array binding signal (z-score)” value [1] is reported as -0.194, the “glycan array binding signal (z-score)” value [2] is reported as 0.107 and the “glycan array binding signal (z-score)” value [3] is reported as -0.205. The “glycan array binding signal (z-score)” value [4] was -0.238, the “glycan array binding signal (z-score)” value [5] was -0.335 and the “glycan array binding signal (z-score)” value [6] was -0.336. For the same binder, the “glycan array binding signal (z-score)” value [7] was -0.226, the “glycan array binding signal (z-score)” value [8] was -0.23 and the “glycan array binding signal (z-score)” value [9] was -0.228. For the same binder, the “glycan array binding signal (z-score)” value [10] was -0.234, the “glycan array binding signal (z-score)” value [11] was -0.323 and the “glycan array binding signal (z-score)” value [12] was -0.204. The “glycan array binding signal (z-score)” value [13] was -0.211, the “glycan array binding signal (z-score)” value [14] was -0.25 and the “glycan array binding signal (z-score)” value [15] was -0.287. For the same binder, the “glycan array binding signal (z-score)” value [16] was -0.227, the “glycan array binding signal (z-score)” value [17] was -0.238 and the “glycan array binding signal (z-score)” value [18] was -0.301. For the same binder, the “glycan array binding signal (z-score)” value [19] was -0.192, the “glycan array binding signal (z-score)” value [20] was -0.276 and the “glycan array binding signal (z-score)” value [21] was -0.302. For the same binder, the “glycan array binding signal (z-score)” value [22] was -0.301, the “glycan array binding signal (z-score)” value [23] was -0.228 and the “glycan array binding signal (z-score)” value [24] was -0.34. For the same binder, the “glycan array binding signal (z-score)” value [25] was -0.277, the “glycan array binding signal (z-score)” value [26] was -0.196 and the “glycan array binding signal (z-score)” value [27] was -0.338. The “glycan array binding signal (z-score)” value [28] was -0.249, the “glycan array binding signal (z-score)” value [29] was -0.231 and the “glycan array binding signal (z-score)” value [30] was -0.249. The “glycan array binding signal (z-score)” value [31] was -0.271, the “glycan array binding signal (z-score)” value [32] was -0.231 and the “glycan array binding signal (z-score)” value [33] was -0.219. For the same binder, the “glycan array binding signal (z-score)” value [34] was -0.309, the “glycan array binding signal (z-score)” value [35] was -0.262 and the “glycan array binding signal (z-score)” value [36] was -0.31. For the same binder, the “glycan array binding signal (z-score)” value [37] was -0.232 and the “glycan array binding signal (z-score)” value [38] was -0.249.
